Laboratory results: PMC3900716
These are yes or no findings as the source states them, for the method shown. In cells and extracts the contact can be indirect. Some binding calls cover weakened binding; strength is not graded here. Sequences can lack the tags named with a protein.

Sequences of proteins named here, by UniProt entry; tags and fusion partners are left off. A change or cut given only in a name is not applied to a line headed by its entry. A line that says so, or that is headed by a name, gives the form on record, which may keep a tag or linker.
RET9MEN2A (C634R) (P07949, form named): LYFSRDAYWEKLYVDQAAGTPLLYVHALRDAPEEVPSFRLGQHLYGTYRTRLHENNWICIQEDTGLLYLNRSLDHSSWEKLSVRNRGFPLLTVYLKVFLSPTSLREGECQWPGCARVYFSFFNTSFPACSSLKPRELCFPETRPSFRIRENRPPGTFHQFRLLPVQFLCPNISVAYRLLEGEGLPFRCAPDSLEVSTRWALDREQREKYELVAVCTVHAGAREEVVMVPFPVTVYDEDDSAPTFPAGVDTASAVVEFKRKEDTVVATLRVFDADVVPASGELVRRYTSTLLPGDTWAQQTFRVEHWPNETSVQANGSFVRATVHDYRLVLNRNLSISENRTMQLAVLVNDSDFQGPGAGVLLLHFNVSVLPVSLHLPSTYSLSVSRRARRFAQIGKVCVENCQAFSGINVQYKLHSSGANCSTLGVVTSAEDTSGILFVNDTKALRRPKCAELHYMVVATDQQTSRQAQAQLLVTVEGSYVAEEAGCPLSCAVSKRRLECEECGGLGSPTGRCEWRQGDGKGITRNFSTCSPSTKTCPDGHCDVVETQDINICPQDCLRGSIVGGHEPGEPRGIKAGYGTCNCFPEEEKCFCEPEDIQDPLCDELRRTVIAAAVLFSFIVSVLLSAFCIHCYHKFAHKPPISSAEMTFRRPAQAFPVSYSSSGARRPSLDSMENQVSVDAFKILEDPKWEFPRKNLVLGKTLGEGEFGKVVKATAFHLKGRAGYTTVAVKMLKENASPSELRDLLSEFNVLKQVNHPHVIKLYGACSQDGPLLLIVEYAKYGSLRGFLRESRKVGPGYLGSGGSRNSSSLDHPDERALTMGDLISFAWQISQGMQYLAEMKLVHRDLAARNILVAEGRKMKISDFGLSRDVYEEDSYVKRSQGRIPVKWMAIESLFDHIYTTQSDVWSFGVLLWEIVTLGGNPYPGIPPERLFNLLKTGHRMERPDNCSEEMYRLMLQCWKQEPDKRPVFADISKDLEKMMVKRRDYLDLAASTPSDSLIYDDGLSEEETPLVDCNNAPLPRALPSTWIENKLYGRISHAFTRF
UniProt Q9NR12: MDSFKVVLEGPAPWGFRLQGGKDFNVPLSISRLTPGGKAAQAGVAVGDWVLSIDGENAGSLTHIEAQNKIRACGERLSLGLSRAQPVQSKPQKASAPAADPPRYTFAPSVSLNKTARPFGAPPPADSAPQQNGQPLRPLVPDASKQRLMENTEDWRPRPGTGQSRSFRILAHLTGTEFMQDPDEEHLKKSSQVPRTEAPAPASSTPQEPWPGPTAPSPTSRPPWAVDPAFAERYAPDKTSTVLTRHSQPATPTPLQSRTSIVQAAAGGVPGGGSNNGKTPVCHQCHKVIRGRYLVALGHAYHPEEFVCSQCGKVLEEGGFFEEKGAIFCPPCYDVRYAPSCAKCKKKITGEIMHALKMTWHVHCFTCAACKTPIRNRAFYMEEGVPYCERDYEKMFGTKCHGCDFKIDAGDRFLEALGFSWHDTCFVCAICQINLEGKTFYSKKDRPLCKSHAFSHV

B1: GST-tagged human Cbl-c (enzyme, UniProt Q9ULV8 1-474)
chain: MALAVAPWGRQWEEARALGRAVRMLQRLEEQCVDPRLSVSPPSLRDLLPRTAQLLREVAHSRRAAGGGGPGGPGGSGDFLLIYLANLEAKSRQVAALLPPRGRRSANDELFRAGSRLRRQLAKLAIIFSHMHAELHALFPGGKYCGHMYQLTKAPAHTFWRESCGARCVLPWAEFESLLGTCHPVEPGCTALALRTTIDLTCSGHVSIFEFDVFTRLFQPWPTLLKNWQLLAVNHPGYMAFLTYDEVQERLQACRDKPGSYIFRPSCTRLGQWAIGYVSSDGSILQTIPANKPLSQVLLEGQKDGFYLYPDGKTHNPDLTELGQAEPQQRIHVSEEQLQLYWAMDSTFELCKICAESNKDVKIEPCGHLLCSCCLAAWQHSDSQTCPFCRCEIKGWEAVSIYQFHGQATAEDSGNSSDQEGRELELGQVPLSAPPLPPRPDLPPRKPRNAQPKVRLLKGNSPPAALGPQDPAPA
B2: HA-tagged Cbl-c (enzyme, UniProt Q9ULV8 1-474)
chain: B1 chain

What was measured:
[1] = molecular target: RET9MEN2A (C634R) (human) (UniProt P07949); assay: co-IP; rabbit anti-RET with Protein A/G Plus-agarose, 300 µg whole cell lysate of co-transfected HEK293T cells, immunoblot; in Figure 4A cells with 20 nM MG-132 for 5 h before collection
[2] = molecular target: FLAG-tagged Enigma (human) (UniProt Q9NR12); assay: co-IP; anti-FLAG-M2 agarose, 300 µg whole cell lysate of co-transfected HEK293T cells, immunoblot

| Binder | binding [1] | binding [2] |
| --- | --- | --- |
| B1 | binds |  |
| B2 |  | binds |
